The record followed here is the supplement of paper PMC10126150.

Sequences with one replicate were seen in a single cluster, so their values are uncertain.

For the data set, the system named is ATP. Nature of the data set: switch fluorescence ratio, 500 uM ATP over buffer (Cy3 cluster intensity, sum of 5 cycles each) (fold (ratio)); higher = stronger signal-on switching upon ATP binding; sequences stand for … in TCGTCGGCAGCGTCAGATGTGTATAAGAGACAGTTTTTTTTTTTTTTTTTTTTTTTTT…TC. Conditions: aptamer strand: ATP DNA aptamer (quencher-CACCTGGGGGAGTATTGCGGAGGAAGG + anchor), 100 nM annealed; ATP concentration: 500 uM; one replicate. The method in brief: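 The quencher-labelled ATP aptamer, at 100 nM, was annealed to Cy3-labelled switching-strand clusters on a modified Illumina MiSeq flow-cell. The clusters were imaged in selection buffer, then after 15 min with 500 uM ATP at 22 °C, and this buffer/ATP cycle ran five times with NaOH stripping and re-annealing between runs. Per-cluster fluorescence ratios, summed target-cycle over summed buffer-cycle Cy3 intensity, were averaged per switch-domain sequence. Clusters outside 100-1000 RFU were excluded.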
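Further: ATP exposure 15 min at 22 °C before imaging.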

As for TCCTGAAGTT, the switch fluorescence ratio came to 1.1. The result for AGAGGCGCAC reads 1.06; that for TTCGGCCCAC, 0.996; that for TGTTATAAAG, 0.994. The result for TTTCCCGATC reads 1.05; that for ATTATGAGGC, 0.999. As for TCGGCTATAG, the switch fluorescence ratio is 1.09. For the sequence CTCAGATGGC, the switch fluorescence ratio was 1.01. As to TGGCAGCGCG, the switch fluorescence ratio amounted to 1.01. The figure for AACCGGCAGG is 1; for TTAGCGGAGG it is 0.977. The result for ACTAAGTAT reads 1.03; that for GAACCCCGAG, 1.13; that for CATGGCAGTC, 1.07. On to TCGATCGAG, for which the switch fluorescence ratio was determined as 0.941. The figure for GACAGACTGA is 1.03; for CCTTAAGTAT it is 1.05. Turning to ATAGTCGCCT, the switch fluorescence ratio was found to be 1.06. The result for CAAAGTTGCC reads 1.02; that for TTGGTTGGG, 0.943; that for GTCTGTGATG, 0.998. The result for CCAGGGCCTT reads 0.964; that for AACTTTGCGC, 1.01. Take TTGGTACCCG: the switch fluorescence ratio came to 1.05.

Take ACATACTTCA: the switch fluorescence ratio amounted to 1.36.

As to ATCGGGCCC, the switch fluorescence ratio was found to be 0.987. Consider TGGACTGTGC, for which the switch fluorescence ratio is 1.03. The figure for TCGAGTTGCG is 0.957.

TGGGTGGTCC: the switch fluorescence ratio is 1. In the case of TACGTTTGTT, the switch fluorescence ratio came to 1.01. With TACCTGTCGA, the switch fluorescence ratio came out at 1. In the case of AACCTGGCGC, the switch fluorescence ratio amounted to 1.29.

With TTGATTGTGC, the switch fluorescence ratio came out at 0.996. Take TGGAGCGCAG: the switch fluorescence ratio came out at 1.02.

With ACGCGAGCAT, the switch fluorescence ratio was found to be 1. The result for GTGTGCTTCC reads 1.66; that for AGCGCGGGGA, 1.02; that for CGCTAGGTGA, 1.29. On to GACACGGGGC, for which the switch fluorescence ratio came to 1.01. As to AGCCGTTAAT, the switch fluorescence ratio was found to be 0.964. The result for CCTCTGAGGA reads 1.08; that for CCCATCTTGA, 1.02. Regarding ACACTCTCCA, the switch fluorescence ratio was 0.989. The result for CATTTTGCTG reads 0.971. ATACCTTC: the switch fluorescence ratio is 1.55. Regarding ACTGTAAACG, the switch fluorescence ratio is 1.03.

For CTATTAGATT, the switch fluorescence ratio is 0.983.

Take TTGGCCGGAC: the switch fluorescence ratio was 0.976. Regarding ATCCCAGCCA, the switch fluorescence ratio was determined as 1.

Turning to GTTGTTGGAG, the switch fluorescence ratio was found to be 0.919. For TAAACACTGA, the switch fluorescence ratio amounted to 1.08.

Turning to ATGATTATTG, the switch fluorescence ratio turned out to be 1.01. With TACTGGCGGC, the switch fluorescence ratio is 1.05.

Take CGTCCGGATA: the switch fluorescence ratio amounted to 3.34. The result for CAGAAGGTTG reads 0.97.

Consider ATTTATTAGC, for which the switch fluorescence ratio stood at 1.03. The result for ATGGTCGGGT reads 1.04; that for TAGGACGGGC, 0.995; that for TTTTTTAAA, 1.01.

GAAGATGGAT: the switch fluorescence ratio is 0.978. The result for ACCTTAGAGG reads 1.05. The figure for CAAAGCCAGC is 1.03; for TATGCATGTA it is 0.939. The figure for TTATGCCTGC is 1; for GTCCCCCAT it is 1.03; for CTCCAACTAT it is 1.26. On to CTTGCTGCTA, for which the switch fluorescence ratio was determined as 1.06.
